The source gives no read counts; variants with many changes may rest on few reads.
B1: OR4K15 (parent)
chain: GUUAACGGUCAUAGGCCAUGGAAACUAGGAGCACCAUUUCGCUGCCAGUGAAGAAAUGAACAAAGAAAAUCUGGGCCAGGCAGGCAUCAAAAGAAAUAGUCUUGCGCUCAACCAGAAAGUCUGUAAUCAUUUUAAGGGUA

Variants of: B1
Experiment: self-cleavage, relative activity (ratio to wild type); higher = more cleavage; in vitro, sequencing; the parent is a self-cleaving ribozyme

Row | Variant | self-cleavage
1 | GUUAACGGUCAUAGGCCAUGGAAACUAGGGGCACCAUUUCGCUGCCAGCGAAGAAAUGAACAAAGAAAACCUGGGCCAGGCAGGCACCAAAAGAAAUAGUCUUGCGCUCAACCAGAAAGUCUGUAAUCAUUUUAAGGGUA [A30G U49C U70C U87C] | 0.27
2 | GUUAACGGUCAUAGGCCUUGGAAACUAGGAGCACCAUUUCGCUGCCAGUGAAGAAAUGAACAAAGAAAAUCUGGGCCAGGCAGGCGUCAAAAGAAACAGUCUUGCGCUCAACCAGAAAGUCUGUAAUCAUUUUAAGGGUA [A18U A86G U97C] | 0.76
3 | GUUAACGGUCAUAGGCCAUGGAAACUAGGAGCACCAUUUCGCCGCCGGUGAAGAAAUGAACAAAGAAAAUCUGGGCCAGGCAGGCAUCAAAGGAAAUAGUCUUGCGCUCAACCAGAAAGUCUGUAAUCAUUUUAAGGGUA [U43C A47G A92G] | 1.14
4 | GUUAACGGUCAUAGGCCAUGGAAACUAGGAGCACCAUUUCGCCGCCAGUGAAGAAAUGAACAAAGAAAAUCUGGGCCAGGCUGGCAUCAAAAGAAAUAGUCUUGCGCCCAACCAGAAAGUCUGUAAUCAUUUUAAGGGUA [U43C A82U U108C] | 0.02
5 | GAUAACGGUCAUAGGCCAUGGAGACUAGGAGCACCAUUUCGCUGCCAGCGAAGAAAUGAACAAAGAAAAUCUGGGCCAGGCAGGCAUCAAUAGAAAUAGUCUUGCGCUCAACCAGAAAGUCUGUAAUCAUUUUAAGGGUA [U2A A23G U49C A91U] | 0.83
6 | GUUAACGGUCAUAGGCCAUGGAAACUAGGAGCACCACUUCGCUGCCAGUGAAGAAAUGAACAAAGAGAAUCUGGGCCAGGCAGGCAUCAAAAGAAAUAGUCUUGCGCUCAACCAGAAGGUCUGUAAUCAUUUUAAGGGUA [U37C A67G A118G] | 0.73
7 | GUUAACGGACAUAGGCCAUGGAAACUAGGAGCACCAUUUCGCUGCCAGUGAAGAAAUGAACGAAGAAAAUCUGGGCCAGGCAGGCAUCAAGAGAAAUAGUCUUGCGCUCAACCAGAAAGUCUGUAAUCAUUUUAAGGGUA [U9A A62G A91G] | 1.18
8 | GUUAACGGUCGUAGGCCAUGGAAACUAGGAGCACCAUUUCGCUGCCAGUGAAGAAAUGAACAAAGAAAAUCUGGGCCAGGCAGGCAUCAAGAGAGAUAGUCUUGCGCUCAACCAGAAAGUCUGUAAUCGUUUUAAGGGUA [A11G A91G A95G A129G] | 1.17
9 | GUUAACGGUCAUAGGCCAUGGAAACUAGGAGCACCAUUUCGCUGCCAGUGAAGAAAUGAACAAAGAAAAUCUGGGCCGGGCAGGCAUCAAAGGGAAUAGUCUUGCGCUCAACCAGAAAGUCUGUAAUCGUUUUAAGGGUA [A78G A92G A94G A129G] | 0.11
10 | GUUAGCGGUCAUAGGCCAUGGAAACUAGGAGCACCAUUUCGCUGCCAGUGAAGAAAUGAACAAAGAAAAUCUGGGCCAGGCGGGCAUCGAAUGAAGUAGUCUUGCGCUCAACCAGAAAGUCUGUAAUCAUUUUAAGGGUA [A5G A82G A89G A92U A96G] | 0.6
11 | GUUAACGGUCAUAGGCCAUGGAAACUAGGAGCACCAUUUCGCUGCCAGUGAAGAAAUGAACAAAGAAAAUCUGGGCCAGGCAGGCAACAAAAGAAGUAGUCUUGCGCUCAACCAGAAGGUCUGUAAUCAUUUUAAGGGUA [U87A A96G A118G] | 1.2
12 | GUUAACGGUCAUAGGCCUUGGAAACUAGGAGCACCAUUUCGCUGCCAGUGAAGAAAUGAACAAAGAAAAUCUGGGCCAGGCAGGCAUCAAAAGAAGUAGUCUUGCGCUCAACCAGAAAGUCCGUAAUCAUUUUAAGGGUA [A18U A96G U122C] | 0.87
13 | GUUAACGGUCAUAGGCCAUGGAAACUAGGAGCACCAUUUCGCUGCCAGUGAAGAAAUGAACAAAGAAAAUCUGGGCCAGGCUGGCAUCAAAAGAAGUAGUCAUGCGCUCAACCAGAAAGUCUGUAAUCAUUUUAAGGGUA [A82U A96G U102A] | 0.65
14 | GUUAACGGUCAUAGGCCAUGGAAACUAGGAGCACCAUUCCGCUGUCUGUGAAGAAAUGAACGAAGAAGAUCUGGGCCAGGCAGGCAUCAAAAGAAAUAGUCUUGCGCUCAACCAGAAAGUCCGUAAUCAUUUUAAGGGUA [U39C C45U A47U A62G A68G U122C] | 0.76
15 | GUUAACGGCCAUAGGCCAUGGAAACUAGGAGCACCAUUUCGCUGCCAGUGAAGAAAUGAACAAAGAAAAUCUGGGCCAGGCAGGCAUCAAAAGAAAUAGACUUGCGCUCAGCCAGAAAGUCUGUAAUCAUUUUAAGGGUA [U9C U100A A111G] | 0.03
16 | GUUAACGGUCAUAGGCCAUGGGAACUAGUAGCACCAUCUCGCUGCCAUGGAAGAAGUGAACAAAGAAAAUCUGGGCCAGGCAGGCAUCAAAAGAAAUAGUCUUGCGCUCAACCAGAAAGUCUGUAAUCAUUUUAAGGGUA [A22G G29U U38C G48U U49G A56G] | 0.88
17 | GUUAACGGUCAUAGGCCAUGGAAACCAGGAGCACCAUUUCGCUGCCAGUGAAGCAAUGAACAAAGAAAAUCUGGGCCAGGCAGGCAACAAAAGAAAUAGUCUUGCGCUCAACCAGAAAGUCUGUAAUCAUUAUAAGGGUA [U26C A54C U87A U132A] | 1.44
18 | GUUAACGGUCAUAGGCCAUGGAAACUAGGAGCACCAUUUCGCUGCCAGUGAAGGGAUGAACAAAGAAAAUCUGGGCCAGGCAGGCAUCAAAAGAAAUAGUCUUGCGCUCAACCAGAAAGUCUGUAAUCACUUUAAGGGUA [A54G A55G U130C] | 1.07
19 | GUUAACGGUCUUAGGCCAUGGAAACUAGGAGCACCAUUUCGCUGCCAGUGAAGAAGUGAACAAAGAAAAUCUGGGCCAGGCAGGCAUCAAGAGAAAUAGUCUUGCGCUCAACCAGAAAGUCUGUAAUCAUUUUAAGGGUA [A11U A56G A91G] | 0.51
20 | GUUAACGGUCAUAGGCCAUGGAAACUAGGAGCACCAUUUCGCUGCCAGUGGAGAAAUGAACAAAGAAAAUCUGGGCCAGGCAGGCAUCAAUAGAAAUAGUCUUGCGCUCAACCGGAAAGUCUGUAAUCACUUUAAGGGUA [A51G A91U A114G U130C] | 0.05
21 | GUUAACGGUCAUAGGCCAUGGAAACUAGGAGCACCAACUCGCUGCCAGUGAAGAAAUGAACAAAGGAAAUCUGGGCCAGGCAGGCAUCAAAAGAAAUAGUCUUGCGCUCAACCAGAAAGUCUGUAAUCAUUUUAAGGGUA [U37A U38C A66G] | 2.09

Source: the RNAGym collection of RNA variant scans (doi:10.7554/elife.90254)
